Laboratory results: PubChem BioAssay AID881 (National Center for Advancing Translational Sciences (NCATS), 2007)
In all, about 110,000 compounds went through this assay and about 610 (0.55%) were called active. Inconclusive means that the source gave no clear call. Such entries were picked first, then a sample of the others. Calls follow the shape of the dose curve; as a rule, active = well fitted inhibition curve with a large enough effect; inconclusive = small, poorly fitted or top-dose-only effect; inactive = no such curve, though single readings can be large or run the other way. Potencies beside an inconclusive call are fits to weak or partial responses and may not hold up.

biological target: Polyunsaturated fatty acid lipoxygenase ALOX15B (Homo sapiens) (UniProt O15296); assay: qHTS Assay for Inhibitors of 15-hLO-2 (15-human lipoxygenase 2); settings: purified 15hLO-2, xylenol orange hydroperoxide absorbance; activity change, negative = inhibition: at 57.1 µM (top of the series) unless noted; also: nearly all actives have a fitted effect of over 60% in size
Sequence of UniProt O15296 (O15296 whole entry, looked up): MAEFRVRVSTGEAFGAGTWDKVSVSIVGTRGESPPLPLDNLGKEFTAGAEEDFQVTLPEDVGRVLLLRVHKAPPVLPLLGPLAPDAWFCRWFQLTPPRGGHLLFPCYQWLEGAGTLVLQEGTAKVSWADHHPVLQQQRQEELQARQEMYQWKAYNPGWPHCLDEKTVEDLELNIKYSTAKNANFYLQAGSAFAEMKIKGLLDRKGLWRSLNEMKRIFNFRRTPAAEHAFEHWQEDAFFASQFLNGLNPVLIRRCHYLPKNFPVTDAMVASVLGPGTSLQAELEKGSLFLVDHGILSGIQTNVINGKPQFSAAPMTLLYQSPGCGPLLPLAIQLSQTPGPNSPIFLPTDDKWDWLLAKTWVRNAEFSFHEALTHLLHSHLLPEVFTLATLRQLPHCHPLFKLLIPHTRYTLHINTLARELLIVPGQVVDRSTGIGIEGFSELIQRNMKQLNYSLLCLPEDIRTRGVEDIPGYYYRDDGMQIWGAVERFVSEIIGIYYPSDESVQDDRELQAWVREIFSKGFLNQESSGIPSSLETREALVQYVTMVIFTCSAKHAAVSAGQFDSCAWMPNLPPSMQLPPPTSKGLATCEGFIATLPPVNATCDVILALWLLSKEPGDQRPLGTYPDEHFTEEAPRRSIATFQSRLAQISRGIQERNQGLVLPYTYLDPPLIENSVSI
Outline: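 Enzyme 50 nM, AA 45 uM, 25 mM Hepes pH 7.5 + 0.01% Triton X-100; cpd preinc 15 min RT, rxn 90 min RT; stop/detect with 200 uM XO + 300 uM Fe(II) in 50 mM H2SO4, 30 min; A573/A405.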
% is scaled to controls: 0 for no effect and ±100 for the full control effect; potency is read from the fitted curve at half-maximal effect; tags tell the direction and shape of the fitted curve.

Structure (SMILES)	Potency	activity change, negative = inhibition
O=C(CSc1nc2ccccc2[nH]1)c1ccc(Cl)s1	inconclusive: 15.8 µM [inhibitor, partial curve]	
O=C(NCc1ccco1)c1nn2c(C(F)(F)F)cc(-c3cccs3)nc2c1Br	inconclusive: 39.8 µM [inhibitor, single point]	
O=C(NCc1cccs1)C1CCN(c2ccc(S(=O)(=O)N3CCOCC3)cc2Cl)CC1	inactive	
O=C(CCc1ccccc1)NC(=S)Nc1cc(C(F)(F)F)ccc1N1CCOCC1	inconclusive: 31.6 µM [inhibitor, single point]	
CC1(C)CN(c2ccccc2)N(C(=O)c2ccc(C#N)cc2)C1=O	inconclusive: 25.1 µM [inhibitor, partial curve, poor fit]	
Cc1ccc(-c2nnc3ccc(SC(C)C(=O)O)nn23)cc1 (configuration not stated)	inconclusive: 39.8 µM [inhibitor, single point]	
CCOc1ccc(Nc2oc(-c3cccs3)nc2C#N)cc1	inconclusive: 7.94 µM [inhibitor, full curve, poor fit]	
CCNc1ncc2nc(-c3ccc(OC)cc3)c(=O)n(CCc3ccccc3)c2n1	inactive	
O=C1CC(c2ccc(O)cc2)Oc2cc(O)cc(O)c21 (configuration not stated)	inactive	
CCN1C(=O)/C(=C\N2CCOCC2)SC1=S	inconclusive: 20 µM [inhibitor, partial curve]	
COc1ccc(N(CC(=O)NCc2cccs2)S(=O)(=O)c2c(C)nn(C)c2C)cc1	inactive	
Cc1ccc(NS(=O)(=O)c2ccc(C(=O)N3CCCN(C)CC3)cc2)cc1	inactive	
Cc1noc(C)c1CSc1nc2ccccc2nc1NS(=O)(=O)c1ccc(Cl)cc1	inconclusive: 31.6 µM [inhibitor, single point]	
Cc1noc(C)c1-c1nccc(NCc2ccccc2)n1	inconclusive: 39.8 µM [inhibitor, single point]	
COc1ccc(C2C=C(c3ccc(Br)s3)Nc3ncnn32)cc1OC (configuration not stated)	inactive	
CCCCNC(=S)N/N=C/c1ccc(C)s1	inconclusive: 10 µM [inhibitor, partial curve]	
CCn1c2ccccc2c2cc(/C=N/n3cn[nH]c3=S)ccc21	inconclusive: 1 µM [inhibitor, full curve]	
CN1c2ccsc2C(O)=C(C(=S)Nc2ccc(F)c(Cl)c2)S1(=O)=O	inconclusive: 15.8 µM [inhibitor, partial curve]	
O=C(/C=C/c1ccc(F)cc1)NC(=S)Nc1ccccc1C(=O)NC1CCCCC1	inconclusive: 20 µM [inhibitor, partial curve, poor fit]	
CC(O)/C=C/c1cccc[n+]1C (configuration not stated)	inconclusive: 39.8 µM [inhibitor, single point]	
Cn1c(SCC(=O)c2ccc(-c3ccccc3)cc2)nnc1-c1ccco1	inconclusive: 15.8 µM [inhibitor, partial curve]	
Cc1[nH]nc(N=CC2=C(O)CC(c3ccco3)CC2=O)c1-c1ccccc1 (configuration not stated)	inconclusive: 20 µM [inhibitor, single point]	
Cc1ccc(S(=O)(=O)c2nc(NCc3ccc4c(c3)OCO4)sc2Cl)cc1	inconclusive: 15.8 µM [inhibitor, partial curve]	
COc1ccc(-c2oc3ccc(C)cc3c(=O)c2O)cc1OC	inactive	

Structure (SMILES)	Potency	activity change, negative = inhibition
CC1(C)CC(=O)C2=C(C1)OC1=C(C(=O)CC(C)(C)C1)C2c1ccc(O)cc1O	inconclusive: 5.01 µM [inhibitor, partial curve]	
O=C(/C=C/c1ccc(Cl)c(Cl)c1)n1cccn1	inconclusive: 0.158 µM [inhibitor, full curve, poor fit]	
CCOc1cc(/C=N\Nc2ccc([N+](=O)[O-])cc2)ccc1OCC(=O)Nc1ccc(C)c(C)c1	inconclusive: 15.8 µM [inhibitor, partial curve]	
COC(=O)c1c(N)n(-c2ccc(N3CCOCC3)cc2)c2nc3ccccc3nc12	inconclusive: 20 µM [inhibitor, partial curve]	
COc1ccccc1NC(=S)NCCc1ccc(Cl)cc1	inconclusive: 25.1 µM [inhibitor, partial curve]	
CCNc1ncc2nc(-c3ccc(Cl)cc3)c(=O)n(Cc3ccc(F)cc3)c2n1	inactive	
COCCNc1ncnc2ccc(-c3cccc(OC)c3)cc12	inactive	
CCCCCCCN1N=C(C)C(C(=O)c2ccccc2)C1=O (configuration not stated)	inactive	
Cc1cc2n(n1)C(c1sccc1C)Nc1ccccc1-2 (configuration not stated)	inactive	
Clc1ccc(CSCCc2ccncc2)cc1Cl		inactive: 4.25% [at 11.4 µM]
O=C(Cn1c(O)c(/C=C2\C=Nc3ccccc32)sc1=O)Nc1ccc2c(c1)OCO2	inconclusive: 20 µM [inhibitor, partial curve]	
CC1=C(C)CS(=O)N(S(=O)(=O)c2ccccc2)C1 (configuration not stated)	inconclusive: 20 µM [inhibitor, single point]	
COc1ccc(-c2cc(-c3cccs3)c(C#N)c(SCC(=O)NCc3ccccc3)n2)cc1	inconclusive: 12.6 µM [inhibitor, partial curve, poor fit]	
COc1cc(C(=S)N2CCCC2)ccc1O	inactive	
CCNc1ncc2nc(-c3ccccc3)c(=O)n(-c3ccc(OC)cc3)c2n1	inactive	
N#CC(c1nc2ccccc2nc1N1CCCC1)S(=O)(=O)c1cccs1 (configuration not stated)	inconclusive: 12.6 µM [inhibitor, partial curve]	
COCCNc1nc(C)nc2c1nc(-c1ccccc1)n2CC1CCN(C)CC1	inactive	
CCOCCCn1c(SCC(=O)Nc2ccc(C(N)=O)cc2)nc2ccccc2c1=O	inconclusive: 31.6 µM [inhibitor, single point]	
CCCC(=O)NCCc1c2n(c3ccc(OC)cc13)Cc1ccccc1-2	inactive	
O=c1c(-c2ccc(Cl)cc2)nc2cnc(N3CCNCC3)nc2n1-c1ccccc1	inactive	
Cc1ccsc1/C=N/NC(=O)c1sccc1C	inactive	
COC(=O)c1nn(-c2ccccc2)nc1-c1nn(-c2ccccc2)nc1C(=O)OC	inconclusive: 25.1 µM [inhibitor, single point]	
CCC(C)n1cnc2c(c1=O)c1nc3ccccc3nc1n2Cc1ccc(OC)cc1 (configuration not stated)	inconclusive: 10 µM [inhibitor, partial curve]	
